Measured values reported in the supplement of paper PMC3334620.
The full ranking holds about 33,000 sequences; the median of “E-score (-0.5 to 0.5)” is about -0.041, and the highest 2% start at about 0.37. This is one part of the list.

biological target: T1, Ecm22 (UniProt Q05958); test: PBM E-score (8-mer binding enrichment) (E-score (-0.5 to 0.5)); higher = stronger / more preferred TF binding; most listed sequences are background and not binding sites; details: protein concentration: 200 nM; construct: GST-full length
T1 sequence: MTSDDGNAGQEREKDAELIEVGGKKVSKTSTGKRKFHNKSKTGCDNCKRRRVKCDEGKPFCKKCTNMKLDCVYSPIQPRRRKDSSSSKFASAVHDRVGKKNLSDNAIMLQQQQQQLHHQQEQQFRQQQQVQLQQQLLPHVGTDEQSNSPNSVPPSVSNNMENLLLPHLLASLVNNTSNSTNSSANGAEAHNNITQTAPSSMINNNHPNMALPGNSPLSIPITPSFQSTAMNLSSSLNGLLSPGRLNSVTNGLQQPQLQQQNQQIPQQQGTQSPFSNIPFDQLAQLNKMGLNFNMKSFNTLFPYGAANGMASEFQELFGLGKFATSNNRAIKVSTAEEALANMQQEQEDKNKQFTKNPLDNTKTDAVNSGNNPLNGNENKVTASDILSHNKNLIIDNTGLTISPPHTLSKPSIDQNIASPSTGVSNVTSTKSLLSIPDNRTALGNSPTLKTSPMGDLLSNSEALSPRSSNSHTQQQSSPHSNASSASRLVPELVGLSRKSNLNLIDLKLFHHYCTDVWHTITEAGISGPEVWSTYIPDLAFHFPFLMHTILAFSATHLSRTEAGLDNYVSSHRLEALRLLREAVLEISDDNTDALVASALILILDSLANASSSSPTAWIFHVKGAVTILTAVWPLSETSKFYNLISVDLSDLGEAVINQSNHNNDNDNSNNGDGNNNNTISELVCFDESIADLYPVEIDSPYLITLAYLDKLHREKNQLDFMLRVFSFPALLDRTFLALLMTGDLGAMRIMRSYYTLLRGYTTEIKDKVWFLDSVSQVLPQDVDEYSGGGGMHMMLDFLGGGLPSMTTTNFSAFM
Procedure, shortened: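 E-scores (a modified Wilcoxon-Mann-Whitney statistic) were assigned by the Universal PBM Analysis Suite to every ungapped eight-base word pooled with its reverse complement. The input came from universal all-10-mer Agilent arrays made double-stranded by primer extension and probed with GST-tagged yeast transcription factors at about 100-200 nM. Fluorescent anti-GST detected bound protein, and masliner normalised the scans.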

Sequence	PBM E-score
ACACGACA	0.233
GTAGAGCA	-0.13
TCCGTAAA	0.332
CCCTCGGA	0.211
CAGGCCGA	-0.0836
ACAACGAT	0.152
CGACCCAG	-0.0889
CTTCTCAC	-0.187
AGACAAGC	-0.059
CTTCGGAC	0.143
TGATACCA	0.0464
AAATCGAC	0.109
TCGATGCA	-0.0661
AATTGGGT	0.0633
GAGAGATC	-0.0464
CGTAGCAC	0.293
AAACGCTC	0.141
CTGACGTC	-0.0569
ATCGCCCA	-0.194
ATGGATTA	-0.315
ACATGGCT	-0.0681
CCTCATAA	-0.0924

Sequence	PBM E-score
AGTTGGTG	-0.0901
GCGGCGAC	-0.0167
ACAACCAC	0.0223
CCACCGGA	0.0649
ATCATTGC	-0.134
GAATACGA	0.432
TCACATGA	-0.229
CACGAGTA	0.157
AACTACTG	-0.22
GGGGACAA	0.07
ATAGACAA	0.0755
AGTTGCGC	-0.0126
ATGGATAG	-0.0329
CCCCTGCC	-0.251
AACAGGGT	-0.263
GATGAGGA	-0.0394
GGATTGAA	-0.0222
GTATGAAA	0.282
TATAGACA	0.12
ATTCGAGC	0.116
AGGCGTTC	-0.0549
GGGGGTAA	-0.31

Sequence	PBM E-score
AAGTTAGT	-0.073
GGGGGGGA	-0.406
AAGTAACG	0.139
ACAGGGTA	0.0772
CAACATCA	-0.197
TAGGTACA	-0.1
CCTGCGGA	-0.106
CGCTGCCA	-0.132
CCACGATC	0.0737
GTCTTTGA	-0.0629
AGCAGACG	-0.0439
ACGTTTAT	0.298
CGATAACG	0.123
CATGCATC	-0.0492
ACCAAAAT	0.00111
ACCCCCCC	-0.351
ACCCCGGC	-0.184
CTCAAGTA	-0.142
GATAACGC	0.0437
AGGCCAGC	-0.0426
CAGATACA	0.082
CAGTGTGC	-0.129

Sequence	PBM E-score
ATAAGATA	0.071
AGGATGGC	-0.126
ACACTCCG	0.118
CAGAGTGA	-0.012
AACTCGAT	0.124
CTCATTGA	-0.0417
AAGACCAC	-0.319
GTAGCCAA	-0.0181
CGCTGGCC	-0.0787
CCAGAGAG	-0.247
AGTATAAG	0.109
CGACAGTC	-0.0316
AGCAGCTG	-0.139
CGAGAGTA	0.205
AAACCGTT	0.15
GTAGGCGA	0.00726
AGGCTATC	0.131
GTACTCAA	-0.00237
ACGTGGGA	-0.112
AATTCGAT	0.0328
